# Laboratory results reported in PubChem BioAssay (NCATS).
# Inconclusive results, whose numbers are uncertain, are shown with a selection of clear calls. For some assays here: Potencies beside an inconclusive call are fits to weak or partial responses and may not hold up. Where a structure was tested more than once in an assay, its records may differ in their call. The source made the active and inactive calls. Calls come from the whole dose curve; as a rule, active = well fitted curve in the direction sought with a large enough effect; inconclusive = small, poorly fitted or top-dose-only effect, or another doubt; inactive = no such curve, though single readings can be large; an effect the other way counts as inactive or inconclusive.
# Experiments:
# [1] = P-glycoprotein substrates identified in KB-8-5-11 adenocarcinoma cell line, qHTS therapeutic library screen (AID 1346987); conditions: activity change, negative = cytotoxicity: at 44.5 µM (top of the series); note: nearly all actives have a fitted effect of over 65% in size; note: potency is the fitted concentration of half-maximal effect
# How it was run: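 Compounds are pinned in dose-response onto KB-8-5-11 cells (500 cells/well, colchicine-free medium) and left 72 h at 37 degree C. CellTiter-Glo luminescence then yields AC50 values.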
# [2] = system: Zika virus NS2B-NS3 protease (unlinked complex); test: Primary screen GU Rhodamine qHTS for Zika virus inhibitors: Unlinked NS2B-NS3 protease assay (AID 1347159); conditions: Recombinant ZIKV NS2B-NS3 protease, Rhodamine110 substrate fluorescence; activity change, negative = inhibition: at 107 µM (top of the series); note: potency is the fitted concentration of half-maximal effect; nearly all actives have a fitted effect of over 60% in size
# How it was run: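 Unlinked NS2B/NS3, 25 nM; Rhod110 peptide, 1.5 microM; compounds, up to 114 microM. Reaction run 15 min at RT in 10 mM Tris-HCl pH 8.0, 0.01% Tween 20; kinetic fluorescence change fitted with a 4-parameter Hill model.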
# [3] = system: SKOV3; test: Primary qHTS to identify gynecologic anti-cancer compounds using libraries of approved drugs and bioactive compounds (AID 1345084); conditions: Gynecologic cancer cell panel viability, ATPlite luminescence, 48 h; series mostly up to 57.5 µM; note: nearly all actives have a fitted effect of over 55% in size; note: potency is the fitted concentration of half-maximal effect
# How it was run: (§1)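 Five-concentration response, 48 h; readout is ATP-driven luciferase luminescence.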
# [4] = Primary qHTS for inhibitors of nuclear receptor binding SET domain protein 2 (NSD2) in an isogenic RCH-ACV NSD2 p.E1099K mutant (9B) (AID 1645876); conditions: activity change, negative = viability loss: at 44.9 µM (top of the series) unless noted; note: nearly all actives have a fitted effect of over 70% in size; note: potency is the fitted concentration of half-maximal effect
# [5] = system: Tov112D; test: Primary qHTS to identify gynecologic anti-cancer compounds using libraries of approved drugs and bioactive compounds (AID 1345084); conditions: Gynecologic cancer cell panel viability, ATPlite luminescence, 48 h; series mostly up to 57.5 µM; note: nearly all actives have a fitted effect of over 55% in size; note: potency is the fitted concentration of half-maximal effect
# How it was run: as §1
# [6] = Primary qHTS for inhibitors of nuclear receptor binding SET domain protein 2 (NSD2) in an RCH-ACV wild type WT cells (2C) (AID 1645877); conditions: activity change, negative = cell killing: at 44.9 µM (top of the series) unless noted; note: potency is the fitted concentration of half-maximal effect; nearly all actives have a fitted effect of over 70% in size
# [7] = system: Tov-21-G; test: Primary qHTS to identify gynecologic anti-cancer compounds using libraries of approved drugs and bioactive compounds (AID 1345084); conditions: Gynecologic cancer cell panel viability, ATPlite luminescence, 48 h; series mostly up to 57.5 µM; note: nearly all actives have a fitted effect of over 55% in size; note: potency is the fitted concentration of half-maximal effect
# How it was run: as §1
# [8] = Confirmatory screen GU Rhodamine qHTS for Zika virus inhibitors qHTS (AID 1347157); note: potency is the fitted concentration of half-maximal effect; nearly all actives have a fitted effect of over 70% in size
# How it was run: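 Compounds, tested up to 114 microM, were incubated for 15 minutes with 25 nM unlinked NS2B-NS3 protease at pH 8.0. Cleavage of 1.5 microM Rhodamine110 substrate was then followed by fluorescence for 15 minutes.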
# [9] = system: Zika virus NS2B-NS3 protease (linked construct); test: Primary screen NINDS Rhodamine qHTS for Zika virus inhibitors (AID 1347160); note: potency is the fitted concentration of half-maximal effect; nearly all actives have a fitted effect of over 55% in size
# How it was run: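 Single-chain NS2B-NS3 protease, 25 nM, pH 8.0; compounds preincubated 15 min. Activity: Rhodamine110 release from 1.5 microM substrate over 15 min, room temperature, data fitted to 4-parameter Hill.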
# [10] = qHTS of pediatric cancer cell lines to identify multiple opportunities for drug repurposing: Primary screen for SJ-GBM2 cells (AID 1347091)
# How it was run: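 Viability measured as metabolically active cells via CellTiter-Glo luminescence following 48 hours of compound exposure, 11-point dilutions in confirmatory testing. 500-1,000 cells/well plated 5 hours before dosing; controls were DMSO and 2.3 µM bortezomib.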
# [11] = qHTS of pediatric cancer cell lines to identify multiple opportunities for drug repurposing: Primary screen for A673 cells (AID 1347092); conditions: A673 Ewing sarcoma viability, CellTiter-Glo ATP luminescence, 48 h; activity change, negative = cytotoxic: at 46 µM (top of the series); note: potency is the fitted concentration of half-maximal effect; nearly all actives have a fitted effect of over 45% in size
# How it was run: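 Cells are plated, rested 5 h, dosed by pintool, incubated 48 h, then lysed with CellTiter-Glo and read by luminescence. DMSO is the neutral control; bortezomib at 2.3 uM final is the positive control.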
# [12] = qHTS of pediatric cancer cell lines to identify multiple opportunities for drug repurposing: Primary screen for SK-N-MC cells (AID 1347093); conditions: SK-N-MC viability, CellTiter-Glo luminescence, 48 h; activity change, negative = cytotoxic: at 46 µM (top of the series)
# How it was run: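 Metabolically active cells were quantified by ATP-dependent luminescence (CellTiter-Glo, 15 min at room temperature) following 48 h treatment. Cells had been plated at 500-1,000 per well and settled for 5 h beforehand.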
# [13] = qHTS of pediatric cancer cell lines to identify multiple opportunities for drug repurposing: Primary screen for BT-37 cells (AID 1347094)
# How it was run: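 500-1,000 cells/well; 5 h pre-incubation 37 °C/5% CO2; compound pinned; 48 h; CellTiter-Glo, 15 min RT; luminescence. MIPE 11-pt from 0.78 nM, NPC 8-pt from 0.59 nM final. Bortezomib 2.3 µM final as positive control.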
# [14] = qHTS of pediatric cancer cell lines to identify multiple opportunities for drug repurposing: Primary screen for BT-12 cells (AID 1347101); note: nearly all actives have a fitted effect of over 25% in size
# How it was run: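 Cells (500-1,000/well) rested 5 h, then received compounds for 48 h; metabolically active cells were measured by CellTiter-Glo luminescence. Final concentrations spanned up to 46 µM (MIPE, 11-point) or 0.59 nM-46 µM (NPC, 8-point) in primary screens, 11-point in follow-ups.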
# [15] = system: Zika virus NS2B-NS3 protease; test: Primary screen GU AMC qHTS for Zika virus inhibitors (AID 1347154); note: potency is the fitted concentration of half-maximal effect; nearly all actives have a fitted effect of over 70% in size
# How it was run: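 Unlinked Zika NS2B hydrophilic domain–NS3 protease complex at 25 nM in 10 mM Tris-HCl pH 8.0, 0.01% Tween 20, with an AMC peptide substrate. Fluorescence change (340/450 nm) over 15 min at room temperature, normalized to controls, fitted to 4-parameter Hill.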
# [16] = Primary qHTS for inhibitors of La Crosse Virus (LACV) - induced cell death in SH-SY5Y cells (AID 1508616); note: potency is the fitted concentration of half-maximal effect
# How it was run: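 Rescue of virus-induced death was read as ATPLite luminescence after 6 days at 37C, scaled between DMSO wells with LACV and without virus. Cells were SH-SY5Y, 6000/well, infected at 0.01 MOI after compound addition.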
# [17] = target: Calcium and integrin-binding protein 1 (Homo sapiens) (UniProt Q99828); test: Primary qHTS for Identification of Calcium Integrin Binding Protein 1 (CIB1) Competitor (AID 1508620); note: potency is the fitted concentration of half-maximal effect
# How it was run: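 Fluorescence polarization competition: GST-tagged CIB1 (1 uM final) preincubated with compound 15 min at room temperature, then FITC-labelled alphaIIb peptide (100 nM final) added. After 15 min at room temperature, polarization read at Ex 480/Em 540.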
# [18] = Primary qHTS for small molecule stabilizers of the endoplasmic reticulum resident proteome: Secreted ER Calcium Modulated Protein (SERCaMP) assay (AID 1508630); conditions: SH-SY5Y GLuc-SERCaMP (Gaussia luciferase released on ER calcium loss) secretion, thapsigargin, luminescence; activity change, negative = inhibition: at 38.4 µM (top of the series) unless noted; note: potency is the fitted concentration of half-maximal effect
# How it was run: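 The SH-SY5Y reporter protocol was run at 3 concentrations up to 38.3 uM (primary) or 11 concentrations (follow-up): 16 h compound, 100 nM thapsigargin for 4 h, then extracellular luciferase luminescence.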
# [19] = target: Glutathione peroxidase 1 (Homo sapiens) (UniProt P07203); test: Primary qHTS Assay for Inhibitors of Recombinant Selenoprotein Glutathione Peroxidase 1 (GPX1) (AID 1845191); note: potency is the fitted concentration of half-maximal effect; nearly all actives have a fitted effect of over 65% in size
# How it was run: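 GR-coupled readout: NADPH consumption tracked by fluorescence, ex 340/em 450 nm, at t=0 and after 15 min at RT. Final mix 10 nM GPX1, 1 mM GSH, 0.5 mM CHP, 0.5 mM NADPH, 100 nM GR, 0.01% BSA, following 30 min enzyme–compound preincubation.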
# [20] = target: Phospholipid hydroperoxide glutathione peroxidase GPX4 (Homo sapiens) (UniProt P36969); test: Primary qHTS Assay for Inhibitors of Recombinant Selenoprotein Glutathione Peroxidase 4 (GPX4) (AID 1845192); conditions: activity change, negative = inhibition: at 50 µM (top of the series) unless noted; note: potency is the fitted concentration of half-maximal effect; nearly all actives have a fitted effect of over 65% in size
# How it was run: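 Steps: GPX4 plus compound, 30 min RT; add GR/GSH/NADPH master mix; start with cumene hydroperoxide; read 340/450 nm fluorescence at 0 and 15 min. Finals were 200 nM GPX4, 1 mM GSH, 0.5 mM CHP, 0.5 mM NADPH, 100 nM GR.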
# [21] = Drug repurposing screens with cells derived from glioblastoma tumor samples (AID 1345199); conditions: GBM patient neurospheres viability, ATP luminescence, 48 h; Potency: tumour line A unless noted; series mostly up to 46 µM; note: potency is the fitted concentration of half-maximal effect; nearly all actives have a fitted effect of over 40% in size
# How it was run: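 Primary testing used CD133+ neurospheres from four GBM patients, seven concentrations, 48 h exposure and ATP-based viability; confirmation added three slower-growing patient lines.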
# Tags give direction and shape of the fitted curve.
# UniProt P07203, sequence (P07203 whole entry, looked up): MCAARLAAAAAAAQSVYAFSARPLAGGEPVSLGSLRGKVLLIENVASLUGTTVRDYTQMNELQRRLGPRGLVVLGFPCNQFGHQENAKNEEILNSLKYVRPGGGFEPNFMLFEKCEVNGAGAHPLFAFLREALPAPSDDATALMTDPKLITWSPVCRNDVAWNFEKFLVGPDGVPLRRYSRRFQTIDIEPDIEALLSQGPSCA
# UniProt Q99828, sequence (Q99828 whole entry, looked up): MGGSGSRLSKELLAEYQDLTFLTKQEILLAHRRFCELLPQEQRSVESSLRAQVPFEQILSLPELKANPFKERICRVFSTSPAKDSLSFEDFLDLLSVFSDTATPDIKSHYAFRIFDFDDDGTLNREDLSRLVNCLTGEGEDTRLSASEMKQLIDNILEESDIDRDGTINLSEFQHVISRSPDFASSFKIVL
# UniProt P36969, sequence (P36969 whole entry, looked up): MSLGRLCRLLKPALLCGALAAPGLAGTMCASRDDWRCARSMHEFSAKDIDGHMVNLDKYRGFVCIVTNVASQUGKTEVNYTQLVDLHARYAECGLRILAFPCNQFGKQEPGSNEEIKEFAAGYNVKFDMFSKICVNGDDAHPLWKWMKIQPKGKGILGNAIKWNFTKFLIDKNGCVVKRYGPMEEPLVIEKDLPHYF
compound,measurement,setting,value
O=C(CCc1nnc2n(Cc3ccc(Cl)cc3)c(=O)c3ccccc3n12)NCCC1=CCCCC1,Potency,[1],"inconclusive: 2.59 µM [inhibitor, full curve, poor fit]"
same,Potency,[2],"inconclusive: 50.1 µM [inhibitor, partial curve]"
same,Potency,[3],inactive
CC(=O)OC/C(=C/C(=O)O)CC[C@@H]1C(C)=CC(=O)[C@@H]2C(C)(C)CCC[C@@]12C,Potency,[2],"inconclusive: 10 µM [inhibitor, full curve, poor fit]"
same,Potency,[4],inactive
same,Potency,[3],inactive
same,Potency,[5],inactive
CC/C=C/C=C/C1(C)OC(CC(CO)OC)=CC1=O (centres undefined),Potency,[6],"inconclusive: 20.5 µM [inhibitor, single point]"
same,Potency,[3],"inconclusive: 39.8 µM [rising, single point]"
same,Potency,[7],inactive
CCCCS(=O)(=O)Nc1ncnc(OCCOc2ncc(Br)cn2)c1-c1ccc(Br)cc1,Potency,[1],inactive
same,Potency,[8],active: 22.1 µM
same,Potency,[9],"inconclusive: 25.1 µM [inhibitor, partial curve]"
same,Potency,[3],"inconclusive: 8.91 µM [cytotoxic, single point]"
CO/N=C(/C(=O)N[C@@H]1C(=O)N2C(C(=O)[O-])=C(C[n+]3ccn4ncccc43)CS[C@H]12)c1nsc(N)n1,Potency,[10],inactive
same,Potency,[11],"inconclusive: 2.66 µM [cytotoxic, full curve, poor fit]"
same,Potency,[12],inactive
same,Potency,[13],inactive
same,Potency,[14],inactive
same,Potency,[15],"inconclusive: 35.5 µM [inhibitor, single point]"
same,Potency,[16],"inconclusive: 3.16 µM [inhibitor, single point]"
same,Potency,[17],"inconclusive: 56.2 µM [inhibitor, partial curve, poor fit]"
same,Potency,[18],"inconclusive: 35.5 µM [inhibitor, full curve]"
same,Potency,[4],"inconclusive: 33.5 µM [inhibitor, single point]"
same,Potency,[6],"inconclusive: 26.6 µM [inhibitor, single point]"
same,Potency,[19],active: 20.2 µM
same,Potency,[20],active: 17.8 µM
same,Potency,[3],inactive
same,Potency,[21],active: 8.91 µM
